From the supplement of paper PMC10037445 come the findings set out here.

The subject of assay [1] is RAW-Dual. The assay can be described thus: IRF Lucia reporter activity, fold change vs agonist alone; higher = enhanced IRF activity. Conditions: agonist: MPLA (TLR4) […]. The method in brief: (§1)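 RAW-Dual macrophages (50,000 cells/well in DMEM, 384-well plates) received 50 nL of library stock by pin tool, then a PRR agonist 1 h later, and were kept at 37 °C, 5% CO2. After 20 hours, supernatant was read for IRF by QuantiLuc luminescence and for NF-κB by QuantiBlue absorbance at 620 nm. Reporter activity is fold change over agonist-alone wells. Cytotoxic wells had IncuCyte confluency below 70% of agonist controls in both mask sets.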

Assay [2] relates to RAW-Dual. Put plainly: IRF Lucia reporter activity, fold change vs agonist alone; cytotoxicity flag (confluency mask): cytotoxic (confluency <70% of control); higher = enhanced IRF activity. The method in brief:
as §1

Assay [3] concerns RAW-Dual. Put plainly: IRF Lucia reporter activity, fold change vs agonist alone; cytotoxicity flag (confluency mask): not cytotoxic; higher = enhanced IRF activity. The method in brief:
as §1

Where [4] appears, read: library stock concentration (final ~1000-fold dilution): 10 mM, cytotoxicity flag (confluency mask): not cytotoxic.
The mark [5] stands for this setting: agonist: 3'3'-cGAMP (STING) 10 ug/mL.
Where [6] appears, read: library stock concentration (final ~1000-fold dilution): 10 mM, cytotoxicity flag (confluency mask): cytotoxic (confluency <70% of control).

The structures appear in SMILES notation. Several values for one entry are separate records, joined by “and”; a condition that tells them apart may be missing. Identical values can stand only once. Over roughly 2,900 compounds, “IRF Lucia reporter activity, fold change vs agonist alone” has its median near 0.9; the highest 2% begin near 2.8. This is one part of the list.

In the case of `CC(C)c1ccccc1Cc1cc(C(=O)Nc2ccc(S(=O)(=O)c3ccccc3C(C)(C)C)cc2)c(O)c(O)c1O`, the “IRF Lucia reporter activity” value in the assay on RAW-Dual [1] (setting [4]) was found to be 1.03.

With `Clc1ccc2c(c1)CCc1cccnc1C2=C1CCNCC1` (library stock concentration (final ~1000-fold dilution): 10 mM), the “IRF Lucia reporter activity” value in the assay on RAW-Dual [2] (setting [5]) turned out to be 0.432; in the assay with RAW-Dual [2] (agonist: LPS (TLR4) 0.1 ug/mL), 0.436.

Turning to `Clc1ccc2c(c1)CCc1cccnc1C2=C1CCNCC1`, the “IRF Lucia reporter activity” value in the assay on RAW-Dual [1] (setting [6]) stood at 1.29.

Turning to `Cl.O=C(O)/C=C/c1ccc(Cn2ccnc2)cc1`, in the assay with RAW-Dual [1] (setting [4]), the “IRF Lucia reporter activity” value was 0.942.

Regarding `Cl.O=C(O)/C=C/c1ccc(Cn2ccnc2)cc1` (library stock concentration (final ~1000-fold dilution): 10 mM), the “IRF Lucia reporter activity” value stood at 1.06 in the assay with RAW-Dual [3] (setting [5]) and 0.861 in the assay with RAW-Dual [3] (agonist: LPS (TLR4) 0.1 ug/mL).

On to `O=C(Nc1c[nH]nc1-c1nc2cc(CN3CCOCC3)ccc2[nH]1)NC1CC1`, for which, in the assay on RAW-Dual [1] (setting [6]), the “IRF Lucia reporter activity” value came out at 0.0171.

For `O=C(Nc1c[nH]nc1-c1nc2cc(CN3CCOCC3)ccc2[nH]1)NC1CC1` (library stock concentration (final ~1000-fold dilution): 10 mM), the “IRF Lucia reporter activity” value in the assay with RAW-Dual [2] (setting [5]) is 0.0103; in the assay on RAW-Dual [2] (agonist: LPS (TLR4) 0.1 ug/mL), 0.017.

As for `O=C(NC1(c2ccccc2)CC1)c1c(CN2CCC(N3CCCCC3)CC2)c(-c2cccc(C(F)(F)F)c2)nc2cc(Br)ccc12` (library stock concentration (final ~1000-fold dilution): 10 mM), the “IRF Lucia reporter activity” value was 0.512 in the assay on RAW-Dual [2] (setting [5]) and 1.83 in the assay with RAW-Dual [2] (agonist: LPS (TLR4) 0.1 ug/mL).

In the case of `Nc1nc(NCCNc2ncc(-n3ccnc3)c(-c3ccc(Cl)cc3Cl)n2)ccc1[N+](=O)[O-]` (library stock concentration (final ~1000-fold dilution): 10 mM), the “IRF Lucia reporter activity” value in the assay with RAW-Dual [3] (setting [5]) was 0.703; with RAW-Dual [3] (agonist: LPS (TLR4) 0.1 ug/mL), 0.0304.

Consider `Nc1nc(NCCNc2ncc(-n3ccnc3)c(-c3ccc(Cl)cc3Cl)n2)ccc1[N+](=O)[O-]`, for which the “IRF Lucia reporter activity” value with RAW-Dual [1] (setting [4]) was determined as 0.378.

As for `CCN(CC)c1ccc2cc(C(=O)O)c(=O)oc2c1`, in the assay with RAW-Dual [1] (setting [4]), the “IRF Lucia reporter activity” value amounted to 0.961.

As to `CCN(CC)c1ccc2cc(C(=O)O)c(=O)oc2c1` (library stock concentration (final ~1000-fold dilution): 10 mM), the “IRF Lucia reporter activity” value in the assay with RAW-Dual [3] (setting [5]) was found to be 0.932; in the assay with RAW-Dual [3] (agonist: LPS (TLR4) 0.1 ug/mL), 1.09.

As to `CCS(=O)(=O)N1CC(CC#N)(n2cc(-c3ncnc4[nH]ccc34)cn2)C1` (library stock concentration (final ~1000-fold dilution): 10 mM), the “IRF Lucia reporter activity” value in the assay on RAW-Dual [3] (setting [5]) is 0.398 and 0.467; with RAW-Dual [3] (agonist: LPS (TLR4) 0.1 ug/mL), 0.417 and 0.973.

For `CCn1cc(C(=O)O)c(=O)c2cc(F)c(N3CCN(C)CC3)cc21.CS(=O)(=O)O.O.O` (library stock concentration (final ~1000-fold dilution): 10 mM), the “IRF Lucia reporter activity” value was found to be 0.849 in the assay on RAW-Dual [3] (setting [5]) and 0.562 in the assay with RAW-Dual [3] (agonist: LPS (TLR4) 0.1 ug/mL).

For the compound `CCn1cc(C(=O)O)c(=O)c2cc(F)c(N3CCN(C)CC3)cc21.CS(=O)(=O)O.O.O`, the “IRF Lucia reporter activity” value with RAW-Dual [1] (setting [4]) was 0.856.

In the case of `CSC(=N)N`, the “IRF Lucia reporter activity” value in the assay on RAW-Dual [1] (library stock concentration (final ~1000-fold dilution): 10 mM water, cytotoxicity flag (confluency mask): not cytotoxic) was determined as 1.35.

Take `CSC(=N)N` (library stock concentration (final ~1000-fold dilution): 10 mM water): the “IRF Lucia reporter activity” value stood at 1.14 in the assay with RAW-Dual [3] (setting [5]) and 0.899 with RAW-Dual [3] (agonist: LPS (TLR4) 0.1 ug/mL).

On to `Nc1nccc(Oc2ccc(NC(=O)c3c[nH]cc(-c4ccc(F)cc4)c3=O)cc2F)c1Cl` (library stock concentration (final ~1000-fold dilution): 10 mM), for which the results for the “IRF Lucia reporter activity” value in the assay on RAW-Dual [3] (setting [5]) and in the assay with RAW-Dual [3] (agonist: LPS (TLR4) 0.1 ug/mL) were 0.225 and 0.182, respectively.

In the case of `Nc1nccc(Oc2ccc(NC(=O)c3c[nH]cc(-c4ccc(F)cc4)c3=O)cc2F)c1Cl`, the “IRF Lucia reporter activity” value in the assay with RAW-Dual [1] (setting [4]) amounted to 0.395.

As to `C#CCNC1CCc2ccccc21` (stereo not drawn), the “IRF Lucia reporter activity” value with RAW-Dual [1] (setting [4]) was 1.04.

For the compound `C#CCNC1CCc2ccccc21` (stereo not drawn) (library stock concentration (final ~1000-fold dilution): 10 mM), the “IRF Lucia reporter activity” value with RAW-Dual [3] (setting [5]) was found to be 1.09; in the assay with RAW-Dual [3] (agonist: LPS (TLR4) 0.1 ug/mL), 1.04.

Take `CNC(C)C(=O)NC1CN(C(=O)CC(C)C)CCC2CCC(C(=O)NC(c3ccccc3)c3ccccc3)N2C1=O` (stereo not drawn): the “IRF Lucia reporter activity” value in the assay with RAW-Dual [1] (setting [4]) was found to be 0.522.

As for `CNC(C)C(=O)NC1CN(C(=O)CC(C)C)CCC2CCC(C(=O)NC(c3ccccc3)c3ccccc3)N2C1=O` (stereo not drawn) (library stock concentration (final ~1000-fold dilution): 10 mM), the “IRF Lucia reporter activity” value in the assay with RAW-Dual [3] (setting [5]) is 0.81; with RAW-Dual [3] (agonist: LPS (TLR4) 0.1 ug/mL) it was 0.595.

As to `CC1CC(=O)Nc2cccc(-c3ccc4c(c3)c(-c3cnn(C)c3)nn4C)c2N1` (stereo not drawn) (library stock concentration (final ~1000-fold dilution): 10 mM), the “IRF Lucia reporter activity” value in the assay on RAW-Dual [3] (setting [5]) stood at 0.64; in the assay on RAW-Dual [3] (agonist: LPS (TLR4) 0.1 ug/mL), 0.169.

As to `Clc1ccc(N/N=C(\c2ccccc2)c2ccccn2)nc1` (library stock concentration (final ~1000-fold dilution): 10 mM), the “IRF Lucia reporter activity” value in the assay with RAW-Dual [3] (setting [5]) came out at 1.83; in the assay with RAW-Dual [3] (agonist: LPS (TLR4) 0.1 ug/mL), 0.818.

As to `Clc1ccc(N/N=C(\c2ccccc2)c2ccccn2)nc1`, the “IRF Lucia reporter activity” value in the assay on RAW-Dual [1] (setting [4]) came out at 0.334.

Turning to `CCC1(O)CC2CN(CCc3c([nH]c4ccccc34)C(C(=O)OC)(c3cc4c(cc3OC)N(C=O)C3C(O)(C(=O)OC)C(OC(C)=O)C5(CC)C=CCN6CCC43C65)C2)C1.O=S(=O)(O)O` (stereo not drawn), the “IRF Lucia reporter activity” value in the assay with RAW-Dual [1] (setting [4]) amounted to 1.06.

Regarding `CCC1(O)CC2CN(CCc3c([nH]c4ccccc34)C(C(=O)OC)(c3cc4c(cc3OC)N(C=O)C3C(O)(C(=O)OC)C(OC(C)=O)C5(CC)C=CCN6CCC43C65)C2)C1.O=S(=O)(O)O` (stereo not drawn) (library stock concentration (final ~1000-fold dilution): 10 mM), the “IRF Lucia reporter activity” value stood at 0.107 in the assay on RAW-Dual [3] (setting [5]) and 2.02 in the assay with RAW-Dual [3] (agonist: LPS (TLR4) 0.1 ug/mL).
